Source: PubChem BioAssay AID1745853 (National Center for Advancing Translational Sciences (NCATS), 2022)
Some of the results follow. These are further read-outs of the screen, such as a control signal, another cell line or another target. No call is given for them. Peptide text beside a SMILES is read from it.

Experiments:
Assay in all cases: Primary Screen for Target Class Profiling of Small Molecule Inhibitors of Methyltransferases
[1] = target: Glycine N-methyltransferase (Homo sapiens) (UniProt Q14749); conditions: purified enzyme, MTase-Glo SAH luminescence; measured here: GNMT inhibition; at 40 µM; stronger effect = lower value
Description: (§1) PI: Matthew D. Hall Ph.D. and Quinlin M. Hanson Ph.D.
(§2) National Center for Advancing Translational Sciences (NCATS)
(§3) National Institute of Health (NIH), Rockville, MD
(§4) Target class profiling (TCP) is a chemical biology approach amenable to investigating understudied biological targets. TCP is achieved by developing a generalizable assay platform and applying it to screen a curated set of compound libraries against representative members of a target class. Small molecule methyltransferases (SMMTase) are a subclass of methyltransferase that act on metabolites to modulate signaling pathways, metabolize xenobiotics, or balance the available methyl pool. We screened four curated libraries totaling 27,574 unique compounds against the SMMTases nicotinamide N-methyltransferase (NNMT), phenylethanolamine N-methyltransferase (PNMT), histamine N-methyltransferase (HNMT), glycine N-methyltransferase (GNMT), catechol O-methyltransferase (COMT), and guanidinoacetate N-methyltransferase (GAMT). The data generated by this TCP can be leveraged for informed tool molecule development. For example, in the associated publication we identified a chemotype of HNMT-selective inhibitors. Additionally, we identified a putative SMMTase-selective inhibitor with potential as a tool molecule for studying broader methyltransferase biology.
(§5) High-through put screening assays were developed at the National Center for Advancing Translational Science (NCATS) for the enzymes NNMT, PNMT, HNMT, GNMT, COMT, and GAMT. Enzymatic activity was measured as a function of SAM cofactor conversion using the MTase Glo kit (Promega) for all enzymes. All assays were performed in 1536-well format with substrates and SAM concentrations at KM values. Enzyme concentration and assay timing were optimized for 10-20% SAM conversion. Initial screening of 27,574 compounds was done as single-point assays using the highest compound concentration (40 uM). […] These compounds were replated in 11-point dose response and assayed against NNMT, PNMT, HNMT, GNMT, COMT, GAMT, and a counter-assay. The IC50 and efficacy (maximal response) values were determined for each dose-response curve. These values are also accounted for in the area under the curve (AUC) values.
(§6) PROTOCOL TABLE (as described by Inglese J, Shamu CE and Guy RK. 2007)
(§7) SEQUENCE No. (e.g., 1, 2, 3, etc.); […] (e.g., Cells, Incubation, Reagent, etc.); VALUE; DESCRIPTION.
(§8) 1; Reagent; 2 uL; SMMTase Enzyme (2x) in reaction buffer, columns 1- 48.
(§9) 2; Reagent; 1 uL; SAM (4x) in reaction buffer, columns 1-48.
(§10) 3; Controls; 23 nL; DMSO in column 4; sinefungin in DMSO (0 uM - 40 uM) in 7-point 1:2 dilution series (n = 2) in column 2.
(§11) 4; Compounds; 23 nL; Columns 5-48.
(§12) 5; Reagent; 1 uL; Substrate (4x) in reaction buffer, columns 2-48.
(§13) 6; Time; 20-30 min; Incubation.
(§14) 7; Reagent; 1 uL; MTase-Glo reagent (5X), columns 1-48.
(§15) 8; Time; 30 min; Incubation.
(§16) 9; Reagent; 5 uL; MTase-Glo Detection reagent, columns 1-48.
(§17) 10; Time; 30 min; Incubation, luminescence evolution.
(§18) 11; Detection; Luminescence; ViewLux uHTS Microplate Imager (PerkinElmer).
(§19) NOTES (numbers refer to Sequence numbers above)
(§20) 1, 2, 5. White Medium Binding Greiner 1536-well plates (Cat #789175-F, Greiner Bio-One, Monroe, NC); Reaction buffer: 50 mM Tris, pH 8.0, 3 mM MgCl2, 1 mM EDTA, 50 mM NaCl, 1 mM DTT, and 0.1 mg/mL BSA. Evaporation was prevented by covering assay plates with metal lids containing holes to allow gas diffusion.
(§21) 1. Six SMMTase were profiled: HNMT, GNMT, PNMT, COMT, NNMT, GAMT
(§22) 5. The corresponding substrate was used for each enzyme: HNMT - 5.3 uM Histamine; GNMT - >500 uM Glycine; PNMT - 16.2 uM Norephinephrine; COMT - 13.7 uM Norephinephrine; NNMT - 3.8 uM Nicotinamide; GAMT - 2.5 uM Guanidinoacetate.6, 8, 10. Room temperature
(§23) 6. Final reaction conditions: 10 nM COMT, 5 uM SAM, 15 uM norepinephrine, 50 mM Tris, pH 8.0, 3 mM MgCl2, 1 mM EDTA, 50 mM NaCl, 1 mM DTT, and 0.1 mg/mL BSA; refer to tables 2 and S1 for specific timing.
8. […]

[2] = target: Guanidinoacetate N-methyltransferase (Homo sapiens) (UniProt Q14353); conditions: purified enzyme, MTase-Glo SAH luminescence; measured here: GAMT inhibition; at 40 µM; stronger effect = lower value
Description: as §1, §2, §3, §4, §5, §6, §7, §8, §9, §10, §11, §12, §13, §14, §15, §16, §17, §18, §19, §20, §21, §22, §23
8. […]

[3] = target: Histamine N-methyltransferase (Homo sapiens) (UniProt P50135); conditions: purified enzyme, MTase-Glo SAH luminescence; measured here: HNMT inhibition; at 40 µM; stronger effect = lower value
Description: as §1, §2, §3, §4, §5, §6, §7, §8, §9, §10, §11, §12, §13, §14, §15, §16, §17, §18, §19, §20, §21, §22, §23
8. […]

[4] = target: Nicotinamide N-methyltransferase (Homo sapiens) (UniProt P40261); conditions: purified enzyme, MTase-Glo SAH luminescence; measured here: NNMT inhibition; at 40 µM; stronger effect = lower value
Description: as §1, §2, §3, §4, §5, §6, §7, §8, §9, §10, §11, §12, §13, §14, §15, §16, §17, §18, §19, §20, §21, §22, §23
8. […]

[5] = target: Phenylethanolamine N-methyltransferase (Homo sapiens) (UniProt P11086); conditions: purified enzyme, MTase-Glo SAH luminescence; measured here: PNMT inhibition; at 40 µM; stronger effect = lower value
Description: as §1, §2, §3, §4, §5, §6, §7, §8, §9, §10, §11, §12, §13, §14, §15, §16, §17, §18, §19, §20, §21, §22, §23
8. […]
% is set by controls: 0 for no effect and ±100 for the full control effect.

Compound | activity change, negative = inhibition [1] | activity change, negative = inhibition [2] | activity change, negative = inhibition [3] | activity change, negative = inhibition [4] | activity change, negative = inhibition [5]
CCOc1ccc(C(=O)NC2CCN(c3cc(-c4ccc(OC)cc4)[nH]n3)C2)cc1OCC (stereo not given) | -5.45% | -0.549% | -2.2% | -10.1% | -3.08%
O=C(Nc1ccc(Cl)cc1)C1CCCN(C(=O)c2cccc(-c3ccco3)c2)C1 (stereo not given) | -6.77% | -23.7% | 6.73% | -39% | -13.6%
CC(C)N1C[C@@H](CO)[C@H](c2nc(-c3cccnc3)no2)C1 | -1.48% | 2.5% | -12.9% | -0.143% | 3%
Cc1nnc2n1C(C)CN(C(=O)CCn1cnc3ccccc3c1=O)C2 (stereo not given) | -0.954% | -0.807% | -0.332% | 0.442% | -2.05%
CC1(C(=O)NC2CCCCC2)Cn2c(cc3occc32)C(=O)N1C1CCN(Cc2ccccc2)CC1 (stereo not given) | -0.748% | 0.493% | -1.28% | 3.7% | -0.33%
CCN(CC)C(=O)CC1Sc2ncccc2N(CC(C)C)C1=O (stereo not given) | -0.921% | 2.15% | 2.71% | -7.44% | 15.4%
O=C(Cc1ccccc1)Nc1ccc2n(c1=O)C[C@H]1C[C@@H]2CN(S(=O)(=O)c2ccc(Cl)cc2)C1 | -5.3% | -2.57% | -7.34% | -12.4% | -5.31%
CCCN1C(=O)c2c(C(=O)NCc3ccc(OCC)cc3)ncn2CC1(C)C(=O)NCc1ccc(F)cc1 (stereo not given) | 3.4% | 2.56% | 2.78% | 8.84% | 6.92%
CCn1c(-c2nonc2N)nc2cncc(CNC3CCNCC3)c21 | -5.35% | -7.41% | -5.75% | -18.6% | -8.28%
Cc1ccc(CCNC(=O)c2cc3n(n2)CC(C)(C(=O)NCc2ccc(F)cc2)N(C)C3=O)cc1 (stereo not given) | 2.74% | 0% | 1.36% | 4.09% | -1.92%
COc1ccc(-c2cc3n(n2)CC(C)(C(=O)NC2CCCCC2)N(C(C)c2ccccc2)C3=O)cc1 (stereo not given) | -5.56% | -0.8% | -1.53% | -2.93% | -4.11%
CC1(C(=O)NC2CCCCC2)Cn2c(cc3sccc32)C(=O)N1CCN1CCCCCC1 (stereo not given) | 6.43% | -7.47% | -16.3% | 1.44% | 2.35%
O=C(CCc1nnc2n(Cc3ccccc3)c(=O)c3ccccc3n12)N1CCN(C2CCCCC2)CC1 | -12% | 4.63% | -12.1% | 2.99% | -5.02%
Cn1nc(C2CCCNC2)c2c(C(=O)NC3CC3)cc(C3CC3)nc21 (stereo not given) | -5.6% | -10.7% | -4.33% | -12.3% | 3.52%
O=C1CCN(C(=O)C2(c3ccccc3)CC2)CCCCCCN1 | 2.39% | 0.434% | 4.28% | -1.42% | 4.31%
Cc1ccc(Cn2c(=O)c3ccccc3n3c(=O)n(CC(=O)Nc4cccc(F)c4)nc23)cc1 | 5.82% | 0% | 9.42% | 3.21% | 4.7%
COCC1CN(Cc2ccc(C(C)C)cc2)CC12CCNCC2 (stereo not given) | -2.27% | 0.661% | -8.81% | -2.14% | 4.96%
COc1ccc(C(=O)N2CCC(c3ncc(C)n3C(C)C)C2)cc1 (stereo not given) | -2.38% | -1.32% | -4.1% | -7.43% | -2.1%
NC(=O)c1cccc(-c2cc(O)cc(OC(=O)NC3CCCCC3)c2)c1 | -12.6% | -8.04% | 10.4% | -12.3% | 2.63%
N[C@H](CO)C(=O)O | 3.77% | 12.3% | 5.46% | -0.498% | 9.49%
O=C(NCCNc1cccnc1)C1CCC(=O)N(C2CC2)C1 (stereo not given) | -48.9% | -29.8% | -4.55% | -6.47% | -33.5%
O=C(O)Cc1cccc(-c2cc(CCCCCCc3ccc(O[C@H]4O[C@H](CO)[C@@H](O)[C@H](O)[C@@H]4O)c(-c4cccc(CC(=O)O)c4)c3)ccc2O[C@H]2O[C@H](CO)[C@@H](O)[C@H](O)[C@@H]2O)c1 | 6.89% | 4.12% | 11.5% | -1.9% | 7.5%
COc1ccc(N2CCN(S(=O)(=O)c3ccc4[nH]c(=O)[nH]c4c3)CC2)cc1 | 4.42% | 1.42% | 0.182% | -5.26% | 2.42%
Cn1c(=O)c2ccc(C(=O)NC3CCCCC3)cc2n2c(=O)n(CC(=O)NC3CCCCC3)nc12 | -2.06% | -2.81% | -2.1% | -1.28% | -5.64%
CC(C)(Oc1nn(CCN2CCOCC2)c2ccccc12)C(=O)NCc1ccncc1 | -2.56% | -8.89% | -0.437% | -10.5% | -7.41%
CC(C)C1NC(=O)CNC(=O)C2CCCN2C(=O)C(Cc2c[nH]c3ccccc23)NC(=O)CNC(=O)C(Cc2ccc(O)cc2)NC(=O)CNC1=O (stereo not given) (cyclo(GVGYGWP); configuration not given here) | 7.97% | 6.78% | 13.3% | -7.08% | 9.4%
c1ccc(CCN(Cc2ccccc2)[C@H]2C[C@H]3CCOC[C@@]3(c3ccccc3)C2)cc1 | -3.12% | -0.255% | -2.42% | -3.41% | -2.85%
COCCCNC(=O)C1(C)Cn2nc(-c3ccccc3)cc2C(=O)N1c1ccc(Cl)cc1C (stereo not given) | 2.32% | 3.31% | 3.07% | 2.94% | -0.263%
NC(Cc1cccc(-c2ccccc2CP(=O)(O)O)c1)C(=O)O (stereo not given) | 3.02% | 10.4% | 4.12% | 0.599% | 6.8%
